Some of the results follow. At the low end of the ranking the order means little.
molecular target: T1, GST-Rok (full length) (UniProt O34857); assay: protein binding microarray; settings: Rok is a gene silencer of Bacillus subtilis; high values mean tight binding; most listed sequences are background and not binding sites; double strand, one strand shown;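 note: rank score from −0.5 (least bound) to 0.5 (best bound)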
T1 sequence: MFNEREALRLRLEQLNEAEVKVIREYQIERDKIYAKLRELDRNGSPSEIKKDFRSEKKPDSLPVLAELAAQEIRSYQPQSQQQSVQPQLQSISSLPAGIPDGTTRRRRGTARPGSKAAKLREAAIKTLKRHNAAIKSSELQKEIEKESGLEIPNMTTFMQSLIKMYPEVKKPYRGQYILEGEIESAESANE

Sequence	binding signal
CACTTGAG	0.0113 E-score
GGACCTCA	-0.284 E-score
GAAGAATC	0.114 E-score
GCTTCGTA	-0.143 E-score
CACTGCCA	-0.187 E-score
ACGAATAT	0.232 E-score
GATATCCA	-0.00483 E-score
GCGCCGCA	-0.27 E-score
GGTTTAGA	0.22 E-score
AGGAGGCA	-0.296 E-score
ACGTGTGC	-0.0154 E-score
ACTGGGAA	-0.0286 E-score
ATTCGAAT	0.342 E-score
CTAGCAGA	0.128 E-score
ACGAGGAT	-0.0373 E-score
ATCTGAAT	0.0474 E-score
GTGGCCGA	-0.23 E-score
ACATCAAT	0.137 E-score
AGGTGGAT	-0.181 E-score
ATTATTCA	0.0606 E-score
ATGGAAGA	-0.102 E-score
ACTATCAA	0.337 E-score
AAGTGACC	-0.136 E-score
GAGGTACA	0.159 E-score
CCCGAATC	-0.113 E-score

Sequence	binding signal
GTATAACA	0.208 E-score
ACCCACGC	-0.201 E-score
ACAATGGA	-0.0288 E-score
AGCTAGGG	-0.15 E-score
AAAATACA	0.344 E-score
ACGGGGGA	-0.386 E-score
ATACCTTC	0.0433 E-score
CATGTTTC	0.149 E-score
TATACAGA	0.342 E-score
AGCAGTCC	0.0185 E-score
ATGCTCCG	-0.153 E-score
AAGGGGGT	-0.422 E-score
CGTAATAG	0.318 E-score
AGGAGTAC	-0.115 E-score
CCTTCCAC	-0.276 E-score
CAACGGGG	-0.143 E-score
TACCAGCA	0.135 E-score
TATGAAGA	0.0992 E-score
GAGTACAA	0.0966 E-score
CACTAAAG	0.0834 E-score
ATCCGTGC	0.097 E-score
GAGCTTGC	-0.302 E-score
AATAACTA	0.341 E-score
CTTAGTAC	0.206 E-score
AGTTTCTA	0.402 E-score

Sequence	binding signal
GGGACTAC	0.0192 E-score
AGTCATAG	0.112 E-score
ATCGTGTA	0.252 E-score
CATCTCAC	-0.246 E-score
GACCAAAA	-0.108 E-score
AACACAAG	0.000927 E-score
AATCTCCT	0.108 E-score
GAGGGAGA	-0.227 E-score
ACATAAGA	0.126 E-score
AGCACCTC	-0.162 E-score
ATGTTAGG	0.0845 E-score
AGCGGTAA	0.192 E-score
ACGTCAAA	0.00189 E-score
GGCACGCA	-0.223 E-score
CCGTACAC	-0.145 E-score
CAAGTGAC	-0.0124 E-score
GTATTGAC	0.205 E-score
CCTTGCAG	-0.247 E-score
AGGGCAGA	-0.345 E-score
CAAGCCAG	-0.267 E-score
TAGATCTA	0.303 E-score
CATACCCG	-0.164 E-score
TGTTTGAA	0.00396 E-score
ATCGCTGG	-0.168 E-score
CTCCATAA	-0.13 E-score

Sequence	binding signal
ACTCTGCT	-0.0655 E-score
GCGCGGCA	-0.194 E-score
CCAGCGAC	-0.0112 E-score
AAGGACCT	-0.17 E-score
ATCACGGG	-0.204 E-score
AAGATATG	0.069 E-score
GCCGAAGC	-0.33 E-score
AGTTGACG	-0.0447 E-score
GAAAAGTA	0.262 E-score
CCCCGGAC	-0.303 E-score
AAATGGAA	-0.0394 E-score
AGCCTCTC	-0.165 E-score
AAAACCAG	-0.0134 E-score
ACCTAAAT	0.291 E-score
GTGACGAA	-0.0125 E-score
ACGCAACA	0.0166 E-score
GCAATGCA	0.063 E-score
AGACCTAG	0.0302 E-score
TCTATAAA	0.186 E-score
GACTCTCA	-0.0714 E-score
ACAAAGTA	0.288 E-score
CCCAGGCC	-0.356 E-score
CCCTCCCC	-0.462 E-score
CACGAGCA	-0.0918 E-score
GATCTTAC	0.189 E-score

Sequence	binding signal
ACATATAA	0.329 E-score
ATAAATGC	0.219 E-score
GAATAAGA	0.0395 E-score
ACGTTAAA	0.0739 E-score
ATGGAGCG	-0.152 E-score
AGGGAATG	-0.0807 E-score
TGAGGAAA	-0.105 E-score
CATCGTCC	-0.151 E-score
CCACCGTC	-0.215 E-score
CCCTTTCA	-0.179 E-score
AGAGGTAA	0.212 E-score
GTTGGCAA	0.0293 E-score
CATTTACC	0.064 E-score
ATATAGTC	0.25 E-score
AATTAAGC	-0.0262 E-score
CATTTATA	0.317 E-score
AATGTGTC	0.0624 E-score
GATTTAGC	0.0826 E-score
CCGGTCAG	0.121 E-score
CATGGCCG	-0.189 E-score
ACACATGC	-0.0345 E-score
ACATCGGC	-0.0779 E-score
ACACTCCG	-0.118 E-score
CCAATCGA	0.0148 E-score
GATCCCAA	-0.147 E-score

Sequence	binding signal
TCTACGAA	0.0194 E-score
CCCCGCTC	-0.178 E-score
GAGCTGCC	-0.161 E-score
AGGCACCC	-0.224 E-score
CATTGTCG	-0.0271 E-score
CACTCCGA	-0.251 E-score
AGCGACCC	-0.194 E-score
ACCGAGGG	-0.334 E-score
GGGCAGAC	-0.267 E-score
TCCCCGAA	-0.185 E-score
GTGGATTA	-0.000195 E-score
CCGGATCA	-0.0925 E-score
GTTCCTGA	-0.0254 E-score
CTATTCCC	-0.184 E-score
AACCTTGT	-0.0582 E-score
ATCGCGTA	0.182 E-score
AAATAGCG	0.0843 E-score
AGTGTGAG	0.0596 E-score
ATGCACAG	0.011 E-score
ACGAGCTG	-0.171 E-score
GCATGGTA	0.105 E-score
CCGGTAAC	0.0335 E-score
TCCACTCA	0.0497 E-score
TCCTCCCA	-0.224 E-score
GCACTCTA	-0.0891 E-score

Sequence	binding signal
ACAGTGTA	0.268 E-score
GCCACACC	-0.0414 E-score
CGACACGC	-0.197 E-score
ACGATATA	0.298 E-score
GTGCTCAA	-0.122 E-score
AACGCCAC	-0.204 E-score
ACCCAAAG	-0.15 E-score
ATTCCGTC	-0.0689 E-score
CTCCTTCA	-0.246 E-score
GGACCGAC	-0.163 E-score
AGTCCCCC	-0.367 E-score
ACATCCAA	0.0811 E-score
CACAGGCA	-0.142 E-score
AGCAAGGC	-0.157 E-score
GCATCCTA	-0.0197 E-score
GAAATAGA	0.221 E-score
GTCTTAGA	-0.0385 E-score
GGGCCAAA	0.0182 E-score
GAAAGTCA	-0.0575 E-score
CGAGACCA	-0.177 E-score
ATCACCGA	-0.0834 E-score
GCCCGGCA	-0.126 E-score
